The values that follow come from PubChem BioAssay AID252 (DTP/NCI, 2004).

Toxic doses and inconclusive results are not listed. Certain results were filed several times, with different values. The list is limited to them. There may be further records. Values given together are repeats in other runs, samples, wells, individuals or studies.

The assay concerns BDF1 mice, intracerebral L1210 leukemia, survival T/C. As to the kind of experiment: NCI In Vivo Anticancer Drug Screen. Data for tumor model L1210 Leukemia (intracerebral) in B6D2F1 (BDF1) mice. The note with it: endpoint: mean survival time, higher = longer survival. The procedure: The antitumor activity of compounds was measured in mice bearing transplantable tumors. Survival or tumor size were measured and the results are expressed as the measurement made in the treated group (T) divided by the measurement made in the vehicle treated control group (C). The tumor model used in this assay is L1210 Leukemia (intracerebral) in B6D2F1 (BDF1) mice

For the molecule `N[C@@H](Cc1ccc(N(CCCl)CCCl)cc1)C(=O)O`, the T/C reads like this: (dose: 1.7 mg/kg/injection, schedule: Q01DX001 (ip), vehicle: carboxymethylcellulose (CMC)) 103 % of control and 165 % of control; (dose: 7.0 mg/kg/injection, schedule: Q01DX001 (ip), vehicle: carboxymethylcellulose (CMC)) 120 % of control and 159 % of control.
Turning to `CCCCCCCCCCCCCCCC(=O)OCC1OC(n2ccc(N)nc2=O)C(O)C1O` (stereo not drawn), the T/C (dose: 50.0 mg/kg/injection, schedule: Q01DX001 (ip), vehicle: other) is 115 % of control and 161 % of control.
As to `C=CC(CN1CC1)OC(C)=O` (stereo not drawn), the T/C (dose: 10.0 mg/kg/injection, schedule: Q01DX Z (ip), vehicle: saline) was 114 % of control and 150 % of control; the T/C (dose: 15.0 mg/kg/injection, schedule: Q01DX Z (ip), vehicle: saline) is 101 % of control and 176 % of control.
For the molecule `O=P1(N(CCCl)CCCl)NCCCO1` (stereo not drawn), the T/C is, setting by setting: (dose: 100.0 mg/kg/injection, schedule: Q01DX001 (ip), vehicle: DMSO) 115 % of control, 122 % of control, 153 % of control; (dose: 400.0 mg/kg/injection, schedule: Q01DX001 (ip), vehicle: DMSO) 71 % of control and 158 % of control.
Consider `CC1CCC(NC(=O)N(CCCl)N=O)CC1` (stereo not drawn), for which the T/C (dose: 12.0 mg/kg/injection, schedule: Q01DX001 (oral), vehicle: other) is 124 % of control and 156 % of control.
Regarding `O=NN(CCCl)C(=O)NC1CSCSC1`, the T/C (dose: 4.0 mg/kg/injection, schedule: Q01DX001 (ip), vehicle: other) was 114 % of control and 162 % of control; the T/C (dose: 8.0 mg/kg/injection, schedule: Q01DX001 (ip), vehicle: other) is 121 % of control and 161 % of control.
`O=NN(CCCl)C(=O)N[C@H]1CCCC[C@H]1Cl`: the T/C (dose: 26.0 mg/kg/injection, schedule: Q01DX001 (ip), vehicle: carboxymethylcellulose (CMC)) was 112 % of control, 117 % of control, 153 % of control.
With `Cc1c(C)c(NC(=O)N(CCCl)N=O)c(C)c(C)c1NC(=O)N(CCCl)N=O`, the T/C is, setting by setting: (dose: 125.0 mg/kg/injection, schedule: Q01DX001 (ip), vehicle: other) 117 % of control and 150 % of control; (dose: 750.0 mg/kg/injection, schedule: Q01DX001 (ip), vehicle: other) 115 % of control and 167 % of control.
